Measured values reported in paper PMC6919601, “Identification of Plasmodium dipeptidyl aminopeptidase allosteric inhibitors by high throughput screening” (PLoS ONE, 2019).
In all, about 110,000 compounds went through this assay and about 230 (0.21%) showed an effect of 50% or more. The list shows a part of the results.

Molecular target: DPAP1 (Plasmodium falciparum, UniProt Q8IIJ9)
Assay: primary screen, percent inhibition; read by cleavage of a fluorogenic dipeptide substrate; higher = more effect of the substance
Design: species or system P. falciparum D10 trophozoite lysates; single well
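Also: 30 min substrate incubation versus DMSO and 10 µM JCP410 controls.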

Sequence of DPAP1 (Q8IIJ9 whole entry, looked up): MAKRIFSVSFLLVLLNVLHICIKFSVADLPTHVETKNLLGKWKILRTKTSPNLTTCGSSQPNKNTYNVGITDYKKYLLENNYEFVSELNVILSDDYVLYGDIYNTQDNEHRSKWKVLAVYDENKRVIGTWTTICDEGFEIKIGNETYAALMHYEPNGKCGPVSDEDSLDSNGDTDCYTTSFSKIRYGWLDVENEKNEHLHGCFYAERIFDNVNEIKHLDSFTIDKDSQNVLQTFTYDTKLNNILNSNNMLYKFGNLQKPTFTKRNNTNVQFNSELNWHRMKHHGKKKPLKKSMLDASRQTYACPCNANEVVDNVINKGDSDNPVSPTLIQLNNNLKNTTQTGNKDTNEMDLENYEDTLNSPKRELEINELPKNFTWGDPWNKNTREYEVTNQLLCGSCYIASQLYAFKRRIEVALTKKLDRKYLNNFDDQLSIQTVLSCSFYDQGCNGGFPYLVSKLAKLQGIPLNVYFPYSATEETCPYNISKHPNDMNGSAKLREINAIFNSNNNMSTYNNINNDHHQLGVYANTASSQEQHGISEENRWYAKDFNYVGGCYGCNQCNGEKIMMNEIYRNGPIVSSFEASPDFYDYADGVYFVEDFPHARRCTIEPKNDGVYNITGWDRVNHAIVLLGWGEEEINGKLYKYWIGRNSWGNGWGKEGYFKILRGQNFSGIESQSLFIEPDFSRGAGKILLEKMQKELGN

Row | SMILES | % Inhibition @ 10 uM [%]
1 | CC1OC(C)C2Cc3ccccc3C2O1 (stereo not drawn) | -9.31
2 | CCOC(=O)N1CCN(C(=O)C2CCN(S(=O)(=O)CC)CC2)CC1 | 6.86
3 | CCOC(=O)c1c(NC(=O)COc2cccc(C)c2)sc(C(C)=O)c1C | 22.5
4 | Cc1ccc(-c2c(O)c(=O)/c2=N\C2CCC(C)CC2)cc1C (stereo not drawn) | -0.00718
5 | COCCNC(=O)C1CCN(c2nn3cc(-c4ccc(OC)cc4)nc3s2)CC1 | 5.85
6 | O=C(CSc1nc2sc3c(c2c(=O)n1-c1ccc(F)cc1)CCCC3)N1CCOCC1 | -0.968
7 | CCOCCCNC(=O)c1ccc2nc(N3CCOCC3)sc2c1 | 2.65
8 | O=C(Nc1ncc(CN2CCOCC2)s1)C12C[C@H]3C[C@@H](C1)C[C@@H](C2)C3 | -0.0619
9 | O=C(Nc1ccc(CN2CCOCC2)cc1)c1cccnc1 | 0.709
10 | C=CCN1C(=O)N/C(=C/c2cn(CC(=O)Nc3ccc(C)cc3)c3ccccc23)C1=O | -1.17
11 | COc1cc(C2C(C#N)=C(N)Oc3[nH]nc(C)c32)ccc1OCc1ccccc1 (stereo not drawn) | 4.3
12 | CCOc1cc(C2C(C#N)=C(N)OC3=C2C(=O)CC(c2ccccc2)C3)ccc1OC (stereo not drawn) | 3.1
13 | Cc1cccc(C)c1NC(=O)C1(N(C)C(=O)CN2C(=O)c3ccccc3C2=O)CCCC1 | 6.61
14 | O=C(O)C1CCCN1C(=O)c1ccc(N2C(=O)C3C4C=CC(C4)C3C2=O)cc1 (stereo not drawn) | -0.545
15 | CCOC(=O)c1c(S(=O)(=O)NC(CC)CN2CCOCC2)c(C)n(C)c1C (stereo not drawn) | 2.45
16 | CCCCNC(=O)c1ccc2c(c1)c(C)c(C)n2CC | -6.25
17 | O=C(CNC(=S)N(Cc1ccccc1)Cc1ccccc1F)N1CCC2(CC1)OCCO2 | -0.406
18 | Cc1ccc2onc(CNC(=O)NC3CCCC(C)C3C)c2c1 (stereo not drawn) | -7.1
19 | CCOc1cccc(C(=O)Nc2sc(C)c(CC)c2C#N)c1 | 21.2
20 | Cc1ccc(C2C(C#N)=C(N)OC3=C2C(=O)CCC3)cc1 (stereo not drawn) | 0.67
21 | COCCCN1C(=O)/C(=C\c2ccc(Cl)c(Cl)c2)C(C(=O)OC)=C1C | -3.4
22 | Cc1ccccc1C1C2=C(O)CC(C)(C)CC2=Nc2ncnn21 (stereo not drawn) | -1.62
23 | O/N=C1\CCCc2c1[nH]c1ccc(Cl)cc21 | 0.247
24 | O=c1n(-c2ccccc2)c(=O)n2n1C1C=CC2C2C=CC21 (stereo not drawn) | 2.25
25 | Cc1cccc(C(=O)Nc2ccc(S(=O)(=O)NC3CCCCC3)cc2)c1 | -1.95

Row | SMILES | % Inhibition @ 10 uM [%]
26 | CCC(=O)Nc1c(-c2ccc(C)cc2)nc2cc(C)ccn12 | 1.29
27 | COc1cccc(C2C=C(c3ccc(Br)s3)Nc3ncnn32)c1OC (stereo not drawn) | -5.19
28 | CCOC(=O)N1CC(=O)Nc2ccc(Br)cc2C1c1ccccc1 (stereo not drawn) | 0.0345
29 | N=c1n(CCN2CCCCC2)c2ccccc2n1CC(=O)c1cccs1 | -5.23
30 | Cc1ccccc1CN1C(=O)C(O)(CC(=O)c2ccccc2)c2ccccc21 (stereo not drawn) | -1.43
31 | O=C(c1ccc(COc2ccccc2Cl)o1)N1N=C(C(F)F)CC1(O)C(F)F (stereo not drawn) | -1.36
32 | Cc1cccc(Oc2nc3c(C)cccn3c(=O)c2/C=C(\C#N)C(=O)N2CCOCC2)c1C | 3.63
33 | Cc1c(CCCN)c2ccccc2n1-c1ccccc1 | 1.54
34 | C1=C(c2nc3ccccc3s2)N2CCCCN=C2S1 | -3.25
35 | COc1cccc(C(=O)/C=C(/Nc2sc3c(c2C#N)CCC3)C(=O)O)c1 | -4.74
36 | c1cc(Nc2ncnc3sc4c(c23)CCCC4)ccn1 | 0.986
37 | COc1ccc(NC(=O)c2ccc(Br)cc2)cc1OC | -0.636
38 | Cc1noc2ncnc(N3CCc4ccccc4C3)c12 | -1.42
39 | Cc1c(C(c2cc(Br)ccc2O)c2c(C)n(C)n(-c3ccccc3)c2=O)c(=O)n(-c2ccccc2)n1C | 9.64
40 | COc1ccc(S(=O)(=O)N(CC(=O)N2CCc3ccccc3C2)c2ccc(Cl)cc2)cc1 | -2.28
41 | Cc1ccc(-n2nnc(-c3nc(-c4ccc5c(c4)OCO5)no3)c2N)cc1 | 0.331
42 | C=CCNc1nc(-c2sc(NC(=O)CC)nc2C)cs1 | -1.93
43 | CCOc1ccccc1C1C2=C(O)CCCC2=NC(C)=C1C(=O)OCc1ccccc1 (stereo not drawn) | 7.49
44 | CCOC(=O)N1CCC(N(CC)Cc2ccccc2)CC1 | -1.81
45 | C=C(C)[C@@H]1CC=C(CN2CCN(c3ccc([N+](=O)[O-])cc3)CC2)CC1 | 4.08
46 | Cc1cc2c(cc1C)NC(c1cccs1)C1=C(O)CC(C)(C)CC1=N2 (stereo not drawn) | -0.413
47 | Cc1cc(/C=C2\C(=N)N3N=C(S(C)(=O)=O)SC3=NC2=O)c(C)n1-c1ccccc1F | 1.9
48 | CC(=O)Nc1nc2n(n1)C(c1ccccc1)C=C(C)N2 (stereo not drawn) | -1.07
49 | Cc1ccc(N2C(=O)C(Cl)=C(N3CCCCC3)C2=O)cc1 | -0.941
50 | O=C(CN1C(=O)c2cccc3cccc1c23)NCc1ccccc1Cl | -4.05

Row | SMILES | % Inhibition @ 10 uM [%]
51 | CC/N=c1\c(NC(=O)c2ccc3c(c2)OCO3)c(O)oc2ccccc12 | -5.06
52 | COc1ccc(OCc2nn3c(-c4ccc(C)cc4)nnc3s2)cc1 | 2.89
53 | O=[N+]([O-])c1ccc2[nH]c(CN3CCCCC3)c(-c3ccccc3)c2c1 | 3.47
54 | CN1CCN(C(=O)/C(=C/c2cccnc2)NC(=O)c2cccc(Br)c2)CC1 | 2.08
55 | Cc1c(CN2CCN(c3ccc(F)cc3)CC2)c(=O)n(-c2ccccc2)n1C | -1.21
56 | COc1cc2nc(-n3nc(C)cc3C)n3nc(-c4cccnc4)nc3c2cc1OC | -1.01
57 | CCc1ccc(C2C(C#N)=C(N)N(c3ccc(Br)cn3)C3=C2C(=O)CCC3)cc1 (stereo not drawn) | -5.36
58 | C=C(C)CN(CC)Cc1cccc(O)c1 | -6
59 | O=c1c2ccccc2nc(CN2CCCCCC2)n1-c1ccc(F)cc1 | 6.65
60 | O=C(NCc1cccc(Cl)c1)c1cnc2ccccn2c1=O | -1.66
61 | CCOc1cc2c(cc1OCC)C(c1cc(Cl)ccc1O)NCC2 (stereo not drawn) | -1.38
62 | O=C(NCc1cccnc1)c1cc(-c2ccccc2O)on1 | 2.4
63 | Cc1cccc(S(=O)Cc2ccc(C(=O)NC(C)C)o2)c1 (stereo not drawn) | 1.22
64 | CCOCCCNC(=O)CS(=O)Cc1nc(-c2ccc(Cl)cc2)oc1C (stereo not drawn) | 2.37
65 | CCN(CC)CC#CC(CO)NCc1ccccc1 (stereo not drawn) | 1.7
66 | Cc1ccc(S(=O)(=O)/N=C2\C=CC(=O)C(Cl)=C2)c(C)c1 | 24.5
67 | CC(C)(C)C(C)(O)C#CCN1CCCCC1 (stereo not drawn) | 3.03
68 | CCCCCCCCCCCCC(=O)CCCC(=O)NCCCCCCCC | -2.77
69 | CSC1=NC2(CCCCC2)CC12C=CC(=O)C=C2 | 1.37
70 | CCN(CC)CCNC(=O)CSc1nc2nc(C)c(Cc3c(F)cccc3Cl)c(C)n2n1 | 2.83
71 | Cc1cccc(C)c1NC(=O)C1(NC(=O)c2ccc(Cl)cc2Cl)CCCC1 | 4.44
72 | COC(=O)c1sc(NC(=O)CCS(=O)(=O)c2ccccc2)c(C(=O)OC)c1C | -3.41
73 | Cc1nc2nc(CSc3ccc(Cl)cc3)cc(O)n2n1 | 3.54
74 | COc1cc(C2c3c(-c4ccccc4O)n[nH]c3C(=O)N2Cc2ccco2)cc(Br)c1O (stereo not drawn) | -1.35
75 | Cc1c(CC(=O)N2CCOCC2)c(=O)oc2cc(O)ccc12 | -4.39

Row | SMILES | % Inhibition @ 10 uM [%]
76 | Cn1cc(C2N3CC4(C)CN2CC(C)(C3)C4)c2ccccc21 (stereo not drawn) | 0.415
77 | Cc1ccc(NS(=O)(=O)c2ccc(NC(=O)CCC(=O)O)cc2)c(C)c1 | 1.86
78 | CCOc1ccc(-c2cc(C(=O)NCc3cccnc3)c3cc(C)ccc3n2)cc1 | 0.389
79 | c1ccc(-c2nn[nH]n2)nc1 | -0.0709
80 | Cc1[nH]c(SCC(=O)Nc2nc(-c3ccccc3)cs2)nc1Cc1ccc(O)cc1 | -0.92
81 | COc1ccc(-c2nnc(-c3sc4ccccc4c3Cl)o2)cc1 | -1.17
82 | CCC(=O)c1cc(Cl)ccc1NC(=O)c1ccc(Br)cc1 | -0.736
83 | CNC(C)Cc1ccccc1Sc1ccc(O)cc1 (stereo not drawn) | -21.2
84 | COc1ccc(-c2cc(C(=O)Nc3cccc(C)n3)c3ccccc3n2)c(OC)c1 | 3.72
85 | CCCCCn1c(NCc2ccccc2)nc2c1c(=O)[nH]c(=O)n2C | 4.95
86 | C=C(C)CN(CC)Cc1ccc(-c2cccc([N+](=O)[O-])c2)o1 | -2.21
87 | Cc1ccccc1OCC(=O)Nc1ccc(S(=O)(=O)Nc2cccc3ccccc23)cc1 | 6.95
88 | CC(=O)c1ccc(NC(=O)c2c(C(=O)O)cccc2[N+](=O)[O-])cc1 | -7.32
89 | CCCCC12CN3CC(C)(CN(C1)C3c1ccccc1O)C2=O (stereo not drawn) | -1.71
90 | c1ccc(CN2CN(Cc3ccccc3)c3nc4ccccc4n3C2)cc1 | 2.31
91 | CCOc1cccc2cc(-c3nc4cc(C)ccc4[nH]3)c(=O)oc12 | -5.62
92 | CCN(CC)C(=O)CN(C1CCCCC1)S(=O)(=O)c1ccc(C)cc1 | 3.87
93 | O=C(O)CCCCCNS(=O)(=O)c1ccc(Br)c(C(=O)O)c1 | 4.35
94 | CCOC(=O)c1c(C)[nH]c(C)c1S(=O)(=O)N(Cc1ccccc1Cl)C1CCN(C)CC1 | 3.74
95 | Cc1ccc(C(=O)O)cc1S(=O)(=O)N1CCCCCC1 | -3.27
96 | COCC(C)NC(=O)c1cc(-c2ccc3c(c2)OCO3)on1 (stereo not drawn) | -6.45
97 | Cc1nnn(C23CC4CC(CC(C(=O)N5CCCCCC5)(C4)C2)C3)n1 | -0.0709
98 | CC(NC(=O)c1ccccc1N)c1ccccc1 (stereo not drawn) | -3.38
99 | CCOC(=O)N1CCN(C(=O)CCn2nc(-c3ccccc3)ccc2=O)CC1 | -0.0542
